In PubChem BioAssay AID488969 (Vanderbilt High Throughput Screening Facility, 2010):
In all, about 110,000 compounds were measured (“z-score”: median about -0.1, highest 2% from about 2 on). The list shows a part of the results.

These compounds were tested against Metabotropic glutamate receptor 8 (Rattus norvegicus) (UniProt P70579) (assay: mGluR8 Gi/Go-coupled signaling modulation – cell-based, rat, thallium flux, HTS, primary screen (AID 488969)). Conditions: HEK293 rat mGluR8, GIRK (G protein-gated inwardly rectifying potassium channel) thallium flux, FluoZin2; at 10 µM; stronger effect = higher value; submaximal glutamate (EC20) added with thallium.
UniProt P70579, sequence (P70579 whole entry, looked up): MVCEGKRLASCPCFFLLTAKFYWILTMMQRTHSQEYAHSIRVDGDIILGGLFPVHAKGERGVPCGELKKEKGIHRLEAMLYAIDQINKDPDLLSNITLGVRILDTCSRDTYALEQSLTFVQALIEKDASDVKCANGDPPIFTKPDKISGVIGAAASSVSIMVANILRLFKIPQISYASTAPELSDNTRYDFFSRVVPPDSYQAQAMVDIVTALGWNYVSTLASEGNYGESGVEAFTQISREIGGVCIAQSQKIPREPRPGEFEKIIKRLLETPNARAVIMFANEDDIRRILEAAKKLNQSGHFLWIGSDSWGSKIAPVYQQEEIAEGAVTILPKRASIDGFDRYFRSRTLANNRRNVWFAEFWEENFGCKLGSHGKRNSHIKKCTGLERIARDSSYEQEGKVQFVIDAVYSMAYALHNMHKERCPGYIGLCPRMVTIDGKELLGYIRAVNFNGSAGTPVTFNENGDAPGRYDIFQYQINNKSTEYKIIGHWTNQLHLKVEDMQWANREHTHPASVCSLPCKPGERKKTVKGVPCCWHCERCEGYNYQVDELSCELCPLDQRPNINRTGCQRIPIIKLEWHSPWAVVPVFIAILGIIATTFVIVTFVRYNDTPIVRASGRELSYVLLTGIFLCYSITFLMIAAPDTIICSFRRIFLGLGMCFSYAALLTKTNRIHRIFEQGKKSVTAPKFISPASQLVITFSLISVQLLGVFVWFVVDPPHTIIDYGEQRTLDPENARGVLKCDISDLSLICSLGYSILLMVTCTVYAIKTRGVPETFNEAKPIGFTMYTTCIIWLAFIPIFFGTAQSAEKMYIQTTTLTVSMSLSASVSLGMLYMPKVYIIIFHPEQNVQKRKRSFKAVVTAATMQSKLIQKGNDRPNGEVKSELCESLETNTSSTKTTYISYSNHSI

In order of falling z-score:
1. O=C(NCCc1nc2ccccc2[nH]1)/C(=C/c1ccco1)NC(=O)c1ccc(Br)cc1  1.33
2. CCNc1nc(SCCOc2ccc(C)cc2)nc(N(C)C)n1  0.5
3. COc1ccc(CC(=O)NCCc2ccc(S(N)(=O)=O)cc2)cc1  0.445
4. CC(C)NC(=O)c1ccc(-n2nc(C(F)(F)F)c3c2CCCC3)cc1  0.427
5. O=C(C1=NN[C@@H]2C(=O)N(c3ccccc3C(F)(F)F)C(=O)[C@H]12)C(c1ccccc1)c1ccccc1  0.407
6. CN(C)CCCOC(=O)c1ccccc1Cl  0.35
7. COc1cc(-c2nnc(CSc3nnc(N)s3)o2)cc(OC)c1OC  0.176
8. CCOc1ccc2c(=O)c(Oc3ccccc3OCC)coc2c1  0.145
9. CCOC(=O)c1nnn(-c2nonc2-n2cccc2)c1C  0.116
10. O=C(NCCc1c[nH]c2ccccc12)Nc1ccccc1  0.109
11. Cc1ccc(S(=O)(=O)N(CC(=O)N2CCCCCC2)c2ccccc2)cc1  0.0938
12. CCC/C(O)=N\S(=O)(=O)c1ccc(N=NN(C)C)cc1  0.0936
13. COC(=O)c1sccc1NC(=O)c1ccc(Br)s1  0.0824
14. COc1cc(OC)cc(C(=O)NC2CCSC2=O)c1 (stereo not given)  0.0354
15. CCCN(Cc1ccccc1)C(=O)Nc1ccc2c(c1)nnn2C  -0.00232
16. COCc1nnc(SCC(=O)NCc2ccccc2)n1-c1ccccc1  -0.0133
17. CS(=O)(=O)N1CCCC(C(=O)NCCCN2CCC(Cc3ccccc3)CC2)C1 (stereo not given)  -0.0264
18. CCc1cc[n+](-c2nc3ccccc3nc2C(=C=[N-])C#N)cc1  -0.0505
19. Cc1c(Cl)cccc1NC(=S)N1CCN(C(=O)C2CCCO2)CC1 (stereo not given)  -0.062
20. CCOC(=O)c1nnc(-c2ccccc2)nc1Sc1c(Cl)cccc1Cl  -0.0848
21. Cc1ccc(CS/C(Nc2ccccc2C)=C(\C#N)C(N)=O)c(C)c1  -0.0898
22. O=C1NCCCC1C(=O)Nc1ccccc1C(F)(F)F (stereo not given)  -0.0995
23. CC(C)n1cc(NC(=O)C2CC(c3cccc(Br)c3)=NO2)cn1 (stereo not given)  -0.109
24. CNC(=O)c1[nH]cnc1C(=O)Nc1cccc(OC)c1  -0.12
25. O=[N+]([O-])c1nn(-c2ccc3c(c2)OCCO3)n(O)c1=NCc1ccccc1Cl  -0.131
26. COc1ccc(-c2nc(N=Nc3ccc(O)cc3)n[nH]2)cc1  -0.152
27. COCCCn1c(SCC(=O)N2CCCCC2C)nnc1-c1ccco1 (stereo not given)  -0.163
28. C/C=C(\C)CN1CCN(c2ccc(C)cc2)CC1  -0.167
29. Cc1ccc(CSCCNC(=O)CCSc2ccccc2)cc1  -0.202
30. O=C(CCCOc1ccccc1)N1CCN(c2ccc(F)cc2)CC1  -0.205
31. CCOC(=O)N1CCN(c2c(-c3ccccc3)c3cc(Cl)ccc3[nH]c2=O)CC1  -0.212
32. COc1ccc(CNC(=O)Cn2nnc(-c3ccc(NC(=O)C4CCCCC4)cc3)n2)cc1  -0.24
33. COC(=O)c1sccc1NC(=O)c1csc2c1CCCC2  -0.243
34. CCOC(=O)N1CCN(C(=O)C(C)(C)Oc2ccc(Cl)cc2)CC1  -0.244
35. Cc1ccsc1C(=O)N/N=C/c1ccc([N+](=O)[O-])cc1  -0.249
36. COc1ccc(NC(=O)COC(=O)/C=C/c2ccccc2[N+](=O)[O-])cc1  -0.25
37. COc1ccc(S(=O)(=O)N2CCN(c3ccc4nnc(-c5ccccc5)n4n3)CC2)cc1  -0.253
38. COc1ccc(N=c2sc3ccccc3n2C)cc1  -0.258
39. Cc1ccccc1NC(=O)C1CCCN(S(=O)(=O)c2c(C)noc2C)C1 (stereo not given)  -0.291
40. O=C(Nc1ccc(O)c(-c2nc3ccccc3o2)c1)C1(c2ccc(Br)cc2)CCCC1  -0.297
41. CCCCn1c(NC(=O)c2ccc(Br)o2)c(S(=O)(=O)c2ccccc2)c2nc3ccccc3nc21  -0.332
42. O=C(CSc1ncnc2c1oc1ccccc12)NCc1ccco1  -0.357
43. CC(C)[C@H](NC(=O)c1ccccc1)C(=O)OCC(=O)NCCC1=CCCCC1  -0.405
44. Cc1cc(NC(=O)CCCN2C(=O)/C(=C\c3cccs3)SC2=S)no1  -0.408
45. Cc1csc(NC(=O)CSc2nnc(-c3ccccc3)o2)n1  -0.413
46. O=C(Nc1ccccc1-c1nnc(SCc2ccccc2Cl)o1)c1ccccc1  -0.418
47. Brc1ccccc1OCCOCCOc1cccc2cccnc12  -0.443
48. O=C(COC(=O)[C@H](Cc1ccccc1)NC(=O)c1ccco1)NC(c1ccccc1)c1ccccc1  -0.454
49. CCCCCCCc1nn2c(=O)cc(O)nc2s1  -0.55
50. CC(C)(C)NC(=O)C(c1ccc(O)cc1)N(Cc1ccco1)C(=O)Cn1nnc(-c2cccs2)n1 (stereo not given)  -0.709
51. CC(C)CC[n+]1ccn(C2=C([O-])c3ccccc3C(=O)/C2=N\S(=O)(=O)c2ccccc2)c1  -0.902
52. CCOC(=O)N=S(N)(=O)c1ccc(Cl)cc1 (stereo not given)  -1.25
53. CCOC(=O)c1c(C)n(C(=O)c2ccco2)c(=O)n1C(=O)c1ccco1  -1.47
54. c1ccc(-c2n[nH]c(-c3ccccc3)c2-c2nc3ccccc3[nH]2)cc1  -1.66
55. c1coc(CN(Cc2ccco2)c2ncnc3c2oc2ccccc23)c1  -2.18
